Laboratory results from PubChem BioAssay AID686978 (National Center for Advancing Translational Sciences (NCATS), 2013).
“And” between values parts separate entries of the source, which are not always exact repeats. Equal entries are not always repeated. In all, about 420,000 compounds went through this assay and about 64,000 (15%) were called active. Inconclusive results, whose numbers are uncertain, are shown with a selection of clear calls. The call rests on the fitted dose curve; in most records, active means well fitted inhibition curve with a large enough effect; inconclusive means small, poorly fitted or top-dose-only effect; inactive means flat fitted curve, though single readings scatter. Potencies beside an inconclusive call are fits to weak or partial responses and may not hold up.

Experiment: qHTS for Inhibitors of human tyrosyl-DNA phosphodiesterase 1 (TDP1): qHTS in cells in absence of CPT; further: nearly all actives have a fitted effect of over 55% in size
Settings: DT40 Tdp1-/- hTDP1 cells, no CPT, ATP luminescence, 48 h; activity change, negative = growth inhibition: at 46.2 µM (top of the series) unless noted
Method in brief: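 Luminescent ATP content (CellTiter-Glo) served as the growth readout. Knockout chicken DT40 cells expressing human TDP1 were exposed to compounds without camptothecin for a minimum 48 hr at 37 °C.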
On the % scale 0 is the no-effect control and ±100 the full control effect; potency means the concentration at half of the fitted maximal effect; tags describe the fitted curve by direction and shape.

Compound | Potency | activity change, negative = growth inhibition
Cc1nc(N2CCN(c3ccccc3F)CC2)[nH]c(=O)c1C | inconclusive: 29.1 µM [inhibitor, single point] | –
Cc1cccc2sc(NC(=O)C3CCN(C(=O)c4ccco4)CC3)nc12 | inconclusive: 18.4 µM [inhibitor, single point] | –
CC(/C=N/NC(=O)CSc1nc(C)cc(C)n1)=C\c1ccccc1 | inconclusive: 13 µM [inhibitor, partial curve] | –
CC1CCCC(C)N1C(=O)c1ccccc1Nc1ccc(SC(F)F)cc1 (stereo not given) | active: 20.6 µM | –
COc1ccc(CC(=O)Nc2c(C(=O)N3CCN(c4ccccc4)CC3)oc3ccccc23)cc1OC | inconclusive: 25.9 µM [inhibitor, single point] and inconclusive: 20.6 µM [inhibitor, single point] | –
CN(C)c1ccc(CN(C)C2CCCCC2)cc1 | inactive | –
Cn1c(=O)c2nc(SCC(=O)Nc3ccc(OC(F)(F)F)cc3)n(C)c2n(C)c1=O | inconclusive: 10.3 µM [inhibitor, partial curve] | –
CC(OC(=O)C1=COCCO1)C(=O)NC1CCCC(C)C1C (stereo not given) | inactive | –
COc1cc(CNCc2ccc(C(=O)O)cc2)ccc1OCc1ccc(F)cc1 | inactive | –
Cc1cccc(Cn2cc(S(=O)(=O)c3cccc(Cl)c3)c(=O)c3cc(F)c(N4CCOCC4)cc32)c1 | inactive | –
COc1cccc(NC(=O)NC2(C(F)(F)F)Oc3ccccc3O2)c1 | inconclusive: 16.4 µM [inhibitor, partial curve] | –
O=C(NNC(=O)C1CCN(c2ncccn2)CC1)c1ccncc1 | inactive | –
CCOC(=O)c1ccc(CSc2nnc(N)s2)cc1 | inactive | –
CC(=O)Nc1cc(-c2cccc(CO)c2)cn2c(-c3ccc(C(C)=O)cc3)cnc12 | active: 20.6 µM | –
CCOc1ccccc1NC(=O)C1CCN(S(=O)(=O)c2c(C)noc2/C=C/c2ccco2)CC1 | active: 18.4 µM | –
Cc1ccc(OCCC(=O)OCC(=O)Nc2ccc3[nH]c(=O)[nH]c3c2)cc1 | inactive | –
O=C(NCc1ccccc1)C(=O)Nc1nccs1 | inactive | –
C=CCN(CC=C)C(=O)Nc1ccc2nc(C)sc2c1 | active: 20.6 µM | –
Cc1ccc(C#N)c(SCc2nnc(-c3ccc(Cl)cc3)o2)n1 | inconclusive: 14.6 µM [inhibitor, partial curve] | –
CC1CC(C)CN(S(=O)(=O)c2ccc(C(=O)N3CCCC3)cc2)C1 (stereo not given) | inconclusive: 20.6 µM [inhibitor, partial curve] | –
CC1CN(C(=O)/C=C/c2ccc([N+](=O)[O-])s2)CC(C)O1 (stereo not given) | active: 14.6 µM | –
CCN(CC)c1ncnc2c1cnn2-c1cc(Cl)ccc1C | active: 20.6 µM | –
Cc1c(C(=O)N/N=C/c2ccc(O)c(Br)c2)sc(N)c1C#N | inconclusive: 23.1 µM [inhibitor, single point] | –
COc1cc(C(CC(=O)Nc2ccc(C)c(F)c2)N2Cc3ccccc3C2=O)cc(OC)c1OC (stereo not given) | inactive | –
COc1ccc(-c2nc(CNC(=O)NC3CCCCC3)c(C)o2)cc1 | inconclusive: 23.1 µM [inhibitor, partial curve] | –

Compound | Potency | activity change, negative = growth inhibition
O=S(=O)(c1ccc(N2CCN(S(=O)(=O)c3ccccc3)CC2)nc1)N1CCCC1 | inactive | –
COc1ccc(-c2csc(Nc3ncccc3C)n2)cc1OC | inconclusive: 16.4 µM [inhibitor, single point] | –
COc1ccc(OC)c(CNC(=O)c2ccc(N3Cc4ccccc4Oc4ncccc43)s2)c1 | inconclusive: 14.6 µM [inhibitor, partial curve] | –
Cc1cc(C)cc(C(=O)Nc2cccc(NC(=O)c3ccco3)c2)c1 | inconclusive: 32.6 µM [inhibitor, partial curve, poor fit] | –
NC(=O)c1cc(NC(=O)CCCc2nc3ccccc3s2)cc(C(N)=O)c1 | inactive | –
Cc1ccc(N(Cc2ccc(C(=O)Nc3c(C)n(C)n(-c4ccccc4)c3=O)cc2)S(C)(=O)=O)cc1C | inconclusive: 23.1 µM [inhibitor, single point] | –
Cc1onc(-c2ccccc2Cl)c1C(=O)NCC1CCCO1 (stereo not given) | inactive | –
COc1ccc(C(=O)NCCc2ccc(S(N)(=O)=O)cc2)cc1OC | inactive | –
COc1ccc(C(CC(=O)N2CCCCC2)NC(=O)C(F)(F)F)cc1 (stereo not given) | inactive | –
COc1cc(OC)cc(-c2cc3nc(C)c(CCC(=O)NCCc4cccc(C)c4)c(C)n3n2)c1 | inconclusive: 16.4 µM [inhibitor, single point] | –
COc1cc(NC(=O)Cn2nc(C(F)(F)F)c3c2CCC3)cc(OC)c1OC | active: 9.2 µM | –
CCOc1ccccc1OCCC(=O)OCC(=O)Nc1c(C)cc(C)cc1C | inactive | –
Cc1cccc(NS(=O)(=O)c2cc(Cl)ccc2Cl)n1 | inactive | –
O=C1c2ccccc2C(=O)N1CCc1csc(-c2ccccc2)n1 | inactive | –
CCN(CC)C(=O)c1ccc2c(=O)n(CCOC)c(=S)[nH]c2c1 | – | inconclusive: -31.6% [inhibitor]
COc1ccc2cc(C(=O)C3CCCN(C(=O)c4csnn4)C3)ccc2c1 (stereo not given) | inconclusive: 32.6 µM [inhibitor, single point] | –
COc1ccccc1OCc1ccc(C(=O)Nc2ccncc2)o1 | active: 20.6 µM | –
O=C(c1ccc2c(c1)OCCO2)N(c1ccccn1)C1CCCCC1 | inconclusive: 29.1 µM [inhibitor, single point] | –
COc1cc(/C=C2\C(=O)N(CCC#N)N=C2C)ccc1OCC(=O)Nc1ccccc1 | inconclusive: 20.6 µM [inhibitor, single point] | –
COc1ccc(NC(=S)NNC(=O)c2ccccc2OC(F)F)cc1 | active: 18.4 µM | –
Cc1c(C(=O)NCc2cccc([N+](=O)[O-])c2)sc(=O)n1Cc1ccccc1F | inconclusive: 29.1 µM [inhibitor, single point] | –
CCCCOCP(=O)(CC)COCCCC | – | inconclusive: -9.57% [inhibitor]
CCN(CC)C(=O)c1ccc(Nc2nnc(-c3ccc(O)cc3)c3ccccc23)cc1 | inconclusive: 20.6 µM [inhibitor, partial curve] | –
CCOC(=O)c1ccc(-c2c(-c3ccc(OC)cc3)oc(=O)c3cc(OC)c(OC)cc23)cc1F | active: 10.3 µM | –
O=C1c2ccc(-c3ccc(F)cc3OCc3ccccc3)cc2S(=O)(=O)c2cccc(C(=O)N3CCCC3)c21 | active: 14.6 µM | –

Compound | Potency | activity change, negative = growth inhibition
N/C(=N\OC(=O)COc1ccc2ccccc2c1)c1ccccn1 | inactive | –
CCC(CC)C(=O)N1CC(=O)Nc2ccc(F)cc2C1c1ccc(F)cc1 (stereo not given) | inconclusive: 16.4 µM [inhibitor, single point] | –
Cc1ccc(S(=O)(=O)N2CCN(C(=O)COc3ccc(NC(=O)c4ccco4)cc3)CC2)cc1 | inconclusive: 16.4 µM [inhibitor, single point] | –
O=C(CCn1c(=O)oc2ccccc21)NC1=NCCS1 | inconclusive: 25.9 µM [inhibitor, partial curve, poor fit] | –
CCOc1ccc(Cl)cc1-c1cc(C(=O)Nc2ccc(OC)cc2OC)[nH]n1 | active: 18.4 µM | –
COc1ccc(OC)c(S(=O)(=O)N2C(C)CCCC2C)c1 (stereo not given) | inconclusive: 25.9 µM [inhibitor, single point] | –
CCc1ccc2c(CN3CCN(S(=O)(=O)c4ccc5c(c4)OCCO5)CC3)cc(=O)oc2c1 | inconclusive: 16.4 µM [inhibitor, partial curve, poor fit] | –
CCOc1cc(/C=N/N=C(/N)c2nonc2N)cc(Br)c1OCc1ccc(Cl)cc1 | inconclusive: 16.4 µM [inhibitor, partial curve] | –
C=CCNc1nc(C)c(CNc2c(C)cc(C)cc2C)nc1C#N | inactive | –
CCOC(=O)c1ccc(NC(=O)CN2CCN(CCN=CC3=C(O)CC(C)(C)CC3=O)CC2)cc1 | inactive | –
COc1ccc(-c2c(-c3ccc(OCC(=O)NN)cc3O)n[nH]c2C)cc1OC | inactive | –
Cc1cccc(N2C(=N)SCC2=O)c1C | inactive | –
O=C(Nc1cc(Cl)ccc1F)c1ccc(-n2cncn2)c([N+](=O)[O-])c1 | inconclusive: 29.1 µM [inhibitor, single point] | –
C=CCNc1nc2c(c(=O)n(C)c(=O)n2C)n1Cc1ccc(F)cc1 | active: 6.51 µM | –
CN1OC[C@@H]2CN(Cc3cc(Cl)cc(Cl)c3)[C@H](c3cccc(Oc4ccccc4)c3)C[C@@H]21 | inconclusive: 23.1 µM [inhibitor, single point] | –
Cc1cc(Cl)c2oc(C(=O)NC3CCC(O)CC3)c(C)c2c1 (stereo not given) | inconclusive: 16.4 µM [inhibitor, single point] | –
CCC(=O)N1CCN(c2cc(N3CCCC3)c(F)cc2[N+](=O)[O-])CC1 | inactive | –
O=C(CN1C(=O)NC(c2ccccc2)(c2ccccc2)C1=O)Nc1ccc(N2CCOCC2)cc1 | – | inconclusive: -35.9% [inhibitor]
CCOc1ccccc1NC(=O)/C(C#N)=C/c1c(C)nn(-c2ccccc2)c1Cl | inconclusive: 29.1 µM [inhibitor, single point] | –
COc1cc(C2Nc3ccccc3-c3cc(C)nn32)ccc1O (stereo not given) | inconclusive: 23.1 µM [inhibitor, partial curve] | –
N/C(Cc1cccc2ccccc12)=N\O | inactive | –
CC(C)CC(=O)NC(c1cccs1)c1ccc2cccnc2c1O (stereo not given) | active: 0.58 µM | –
O=C(CCCn1c2ccccc2c(=O)c2ccccc21)Nc1cccc(Cl)c1 | active: 16.4 µM | –
CCC(C)Nc1nc2c(C)cccn2c(=O)c1C=Nc1ccc(OC)cc1 (stereo not given) | inconclusive: 29.1 µM [inhibitor, single point] | –
N#C/C(=C(/O)CSc1ncn[nH]1)c1nc2ccccc2[nH]1 | inactive | –
